Experimental data reported in publication PMC4336329 (PLoS ONE, 2015).
Screen size: about 310,000 compounds; about 14,000 (4.5%) showed an effect of 50% or more. The effect is printed as a negative number. The list shows a part of the results.

Each compound was assayed against human ether-à-go-go-related gene (hERG) potassium channel (human, UniProt Q12809) (assay: primary screen, population patch clamp on CHO cells stably expressing hERG).
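Further: peak tail current of the secondary pulse compared with the same well before compound.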

human ether-à-go-go-related gene (hERG) potassium channel, sequence (Q12809 whole entry, looked up): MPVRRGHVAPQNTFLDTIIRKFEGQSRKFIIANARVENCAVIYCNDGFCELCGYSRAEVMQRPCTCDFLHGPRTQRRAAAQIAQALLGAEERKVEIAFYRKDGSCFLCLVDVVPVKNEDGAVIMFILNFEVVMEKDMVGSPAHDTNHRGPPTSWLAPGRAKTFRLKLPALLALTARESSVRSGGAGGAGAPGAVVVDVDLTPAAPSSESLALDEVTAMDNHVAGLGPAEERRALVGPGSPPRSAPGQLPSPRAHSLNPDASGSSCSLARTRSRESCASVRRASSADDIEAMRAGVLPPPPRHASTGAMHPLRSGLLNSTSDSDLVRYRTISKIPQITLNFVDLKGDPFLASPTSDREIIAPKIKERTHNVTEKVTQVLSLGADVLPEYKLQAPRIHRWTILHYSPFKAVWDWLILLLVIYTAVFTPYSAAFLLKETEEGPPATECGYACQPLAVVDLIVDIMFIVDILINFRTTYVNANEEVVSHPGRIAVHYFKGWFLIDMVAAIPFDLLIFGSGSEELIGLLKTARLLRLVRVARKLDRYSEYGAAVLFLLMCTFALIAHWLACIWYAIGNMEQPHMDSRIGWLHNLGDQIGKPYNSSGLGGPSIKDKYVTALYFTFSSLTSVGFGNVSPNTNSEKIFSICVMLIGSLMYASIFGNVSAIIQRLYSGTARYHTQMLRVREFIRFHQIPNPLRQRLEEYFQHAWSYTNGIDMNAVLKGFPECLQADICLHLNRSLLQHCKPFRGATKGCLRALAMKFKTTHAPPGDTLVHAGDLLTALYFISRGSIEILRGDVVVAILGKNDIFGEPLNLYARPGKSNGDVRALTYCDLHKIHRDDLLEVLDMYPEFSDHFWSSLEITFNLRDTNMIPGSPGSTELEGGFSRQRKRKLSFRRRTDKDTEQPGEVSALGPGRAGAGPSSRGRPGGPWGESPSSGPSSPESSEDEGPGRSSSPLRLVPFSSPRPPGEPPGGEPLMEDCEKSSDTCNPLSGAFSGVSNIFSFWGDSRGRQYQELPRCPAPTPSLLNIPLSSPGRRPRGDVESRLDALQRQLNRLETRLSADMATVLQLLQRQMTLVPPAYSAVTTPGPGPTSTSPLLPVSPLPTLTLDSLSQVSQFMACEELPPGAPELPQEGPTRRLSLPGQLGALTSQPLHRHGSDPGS

SMILES | hERG current change (%, negative = inhibition) at 10uM [%]
COc1ccc(Cl)c2sc(NC(=O)C3=COCCO3)nc12 | 7.86
CC(NC(=O)c1cccs1)c1ccc2c(c1)OCO2 (stereo not shown) | -16.1
CC(=O)Nc1ccc2c(c1)C(=O)N(C1CCCCC1)C2=O | -1.04
CN(CCc1cnn(C)c1)C(=O)CCc1nnc(CCCc2ccccc2)o1 | 12.4
O=C(c1cc2ccccc2o1)N1CCN(Cc2ccc3c(c2)OCO3)CC1 | -22.1
O=C(O)CN1CCN(Cc2ccc(F)cc2Cl)C1=O | -2.06
COc1cc(NC(=S)NC(=O)c2ccccc2C)ccc1NC(=O)c1cccs1 | -1.24
Cn1nc(-c2ccccc2)cc1NS(=O)(=O)c1ccccc1 | -5.88
CCNc1nc(SC(C(C)=O)C(C)=O)nc(N(C)C)n1 | 12.5
Cc1ccc(NS(=O)(=O)c2cccc(C(=O)NNC(=O)c3ccco3)c2)c(C)c1 | -2.38
Cc1nc(N)c(C#N)c(-c2cccnc2)c1C | -6.62
COCCN(C(=S)Nc1cccc(C)c1C)C(C)c1ccco1 (stereo not shown) | -1.08
CNC(=O)c1cc(-c2ccc(Cl)cc2)n(-c2ccccc2)n1 | 4.41
CCc1nn(C)c(-c2n[nH]c(=S)n2N)c1Cl | 21
O=C1CN(C(=O)c2c(F)cccc2F)C(c2ccc(F)cc2)c2cc(F)ccc2N1 (stereo not shown) | -24.6
CCCC(c1nnnn1Cc1ccc(F)cc1)N1CCN(C)CC1 (stereo not shown) | -2.88
COc1ccccc1NC(=O)Cn1c(=O)oc2ccccc21 | 4.67
Cc1cccc(NC(=O)CN(C2=NC3CS(=O)(=O)CC3S2)c2ccccc2F)c1 (stereo not shown) | 10.1
CNc1nc(NCc2ccccc2)c2ccccc2n1.Cl | -68.1
CN(C)c1ccc(NC(=O)CSc2nnc(C3CCCCC3)n2N)cc1 | 16.6
C=CCNC(=O)CN1N=C(c2ccc(C)cc2)CCC1=O | -44.3
Cc1cccc(N2CCN(C(=O)Cc3ccc(-n4c(=O)[nH]c5ccsc5c4=O)cc3)CC2)c1C | 0.15
COc1ccccc1NC(=O)CCN1C(=O)C2CC=C(Cl)CC2C1=O (stereo not shown) | -2.46

SMILES | hERG current change (%, negative = inhibition) at 10uM [%]
Nc1sc2c(c1C(=O)NC1CCS(=O)(=O)C1)CCCC2 (stereo not shown) | 19.1
O=C(NCc1ccc(F)cc1)c1cc(S(=O)(=O)N2CCCCC2)ccc1N1CCOCC1 | -33.4
O=S(=O)(c1ccc(Br)cc1)N1CCN(Cc2ccco2)CC1 | -27.7
Cc1ccsc1/C=C1/CN(C)Cc2c1nc1ccccc1c2C(=O)O.Cl | 13.3
N#CCSc1nc2ccccc2c(=O)n1CC1CCCC1 | 46.7
CN1CCN(Cc2nc3c(c(=O)[nH]c(=O)n3C)n2Cc2c(F)cccc2Cl)CC1 | -1.86
Cc1ccc(S(=O)(=O)c2ccc(Oc3cccc(C)c3)cc2)cc1 | -3.3
Cc1cc(C)n(CCCNC(=O)c2cc(COc3ccc(C)c(C)c3)on2)n1 | -42.8
CCOC(=O)C1(CC2CCCCO2)CCN(C(=O)NCc2ccccc2)CC1 (stereo not shown) | -4.48
COc1ccc(CNC(=O)Cn2nc(C(F)(F)F)c3c2CCC3)cc1 | -5.16
CC(NC(=O)CN(c1cccc(C(F)(F)F)c1)S(C)(=O)=O)c1ccccc1 (stereo not shown) | 13.2
O=C(CSc1nc2ccccc2s1)N1CCOCC1 | 19.4
O=C(CCN1C(=O)/C(=C/c2cccs2)SC1=S)Nc1cccc(O)c1 | 4.92
Cc1c(NC(=O)C(C)OC(=O)c2c3c(nc4ccccc24)CCC(C)C3)c(=O)n(-c2ccccc2)n1C (stereo not shown) | -2.21
COc1cccc(CC2(CO)CCN(Cc3cnc(-c4cccc(C)c4)nc3)CC2)c1 | -19.9
O=C(CSCc1ccc([N+](=O)[O-])cc1)N/N=C/c1cccnc1 | -60.2
CC(=O)OC1OCCOC1NC(=S)NCc1ccco1 (stereo not shown) | 3.3
O=C(CCc1ccccc1)NCCc1cccs1 | -15.5
C=CCN1C(=O)/C(=C\c2ccc(Cl)cc2)N=C1SCC(=O)NCCC | 14.8
CCn1c(COc2cccc(OC)c2)nnc1SCC(=O)Nc1cc(OC)ccc1OC | -16.9
COCCN(CCOC)Cc1c(C)[nH]c2ccccc2c1=O | 2.03
Cc1csc(NC(=O)c2cc3c(C)nn(Cc4ccccc4Cl)c3s2)n1 | 8.85
COCCN(C(=O)CSc1nnc(-c2ccccc2C)n1C)c1c(N)n(Cc2ccccc2)c(=O)[nH]c1=O | 38.4
